This note sets out measurements from the supplement of paper PMC8512760.

This is one part of the list. Single values are uncertain, as repeats are few or missing.
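Note: stably firefly luciferase-GFP labeled cells in 96-well plates, viability read as luciferase photon flux after d-luciferin addition, treated wells normalized to vehicle wells, single-dose high-throughput screen.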

This test has as its system HCC-1143. The test is described as follows: cell viability relative to vehicle (% of vehicle); basal-like triple-negative breast cancer lines; higher = less cytotoxic. As to conditions: 10 µM; 72 h.
As for `Oc1c(Br)cc(Br)c2cccnc12` [Broxyquinoline], the cell viability turned out to be 40.2.

In turn, `OCCOc1ccc(C(=C(CCCl)c2ccccc2)c2ccccc2)cc1` [Ospemifene] returned a cell viability of 77.7.

`Cc1ccc(C(=O)N(CCCN)C(c2nc3cc(Cl)ccc3c(=O)n2Cc2ccccc2)C(C)C)cc1` (stereo not given) returned a cell viability of 27.4.

With `CCN(CC)CCOC(=O)c1ccc(N)cc1` [Procaine], the cell viability was determined as 72.7.

`Clc1ccc(COC(Cn2ccnc2)c2ccc(Cl)cc2Cl)cc1.O=[N+]([O-])O` (stereo not given) [Econazole nitrate] had a cell viability of 100.

The compound `Clc1ccc2c(c1)C(N1CCNCC1)=Nc1ccccc1O2` [Amoxapine] returned a cell viability of 78.9.

In the case of `COC1=C(OC)C(=O)C(CCCCCCCCCCO)=C(C)C1=O` [Idebenone], the cell viability was found to be 72.3.

`Nc1ccn(CC(CO)OCP(=O)(O)O)c(=O)n1.O.O` (stereo not given) [Cidofovir dihydrate] came in with a cell viability of 91.8.

Compound `CCOC(=O)C(CCc1ccccc1)NC(C)C(=O)N1C(=O)N(C)CC1C(=O)O.Cl` (stereo not given) [Imidapril HCl] registered a cell viability of 82.7.

Regarding `CCCCC(=O)N(Cc1ccc(-c2ccccc2-c2nnn[nH]2)cc1)[C@H](C(=O)O)C(C)C.CCOC(=O)[C@H](C)C[C@@H](Cc1ccc(-c2ccccc2)cc1)NC(=O)CCC(=O)O`, the cell viability is 78.9.

In turn, `CC(O)(P(=O)(O)O)P(=O)(O)O` [Etidronate] registered a cell viability of 84.5.

Compound `CCn1cc(C(=O)O)c(=O)c2cnc(N3CCCC3)nc21` [Piromidic Acid] gave a cell viability of 70.4.

The compound `COC(=O)C1=COC(O)C2C(CO)=CCC12` (stereo not given) [Genipin] returned a cell viability of 117.

Regarding `O=C1OC(C(O)CO)C(O)=C1O` (stereo not given) [Vitamin C], the cell viability came to 95.

Regarding `Cc1cc(=O)[nH]c(=S)[nH]1` [Methylthiouracil], the cell viability was 70.7.

The compound `CC(C)N=c1cc2n(-c3ccc(Cl)cc3)c3ccccc3nc-2cc1Nc1ccc(Cl)cc1` [Clofazimine] showed a cell viability of 60.8.

Regarding `NS(=O)(=O)c1cc2c(cc1Cl)NC=NS2(=O)=O` [Chlorothiazide], the cell viability amounted to 88.7.

In turn, `CCn1cc(C(=O)O)c(=O)c2cc(F)c(N3CCNC(C)C3)c(F)c21.Cl` (stereo not given) [Lomefloxacin HCl] had a cell viability of 68.3.

As to `Nc1ncnc2c1ncn2C1OC(CO)C(O)C1O` (stereo not given) [Vidarabine], the cell viability was determined as 94.5.

Regarding `Cc1ccc(=O)n(-c2ccccc2)c1` [Pirfenidone], the cell viability worked out at 67.8.

`CCCCc1oc2ccc(NS(C)(=O)=O)cc2c1C(=O)c1ccc(OCCCN(CCCC)CCCC)cc1.Cl` [Dronedarone HCl] yielded a cell viability of 99.

As for `COc1cccc2c1C(=O)c1c(O)c3c(c(O)c1C2=O)CC(O)(C(=O)CO)CC3OC1CC(N)C(O)C(C)O1.Cl` (stereo not given) [Epirubicin HCl], the cell viability came out at 26.2.

The compound `O=C(O)C1=COC(OC2OC(CO)C(O)C(O)C2O)C2C(CO)=CCC12` (stereo not given) [Geniposidic acid] showed a cell viability of 89.3.

Consider `Cc1cccc(CN2CCN(C(c3ccccc3)c3ccc(Cl)cc3)CC2)c1.Cl.Cl` (stereo not given) [Meclizine 2HCl], for which the cell viability came to 95.2.

With `COC(c1ccccc1)(c1ccccc1)C(Oc1nc(C)cc(C)n1)C(=O)O` (stereo not given) [Ambrisentan], the cell viability came to 81.1.

With `O=C(O)CSCC(=O)NC1CCSC1=O` (stereo not given) [Erdosteine], the cell viability amounted to 91.5.

Compound `CS(=O)(=O)Nc1ccc([N+](=O)[O-])cc1Oc1ccccc1` [Nimesulide] registered a cell viability of 129.

`Cc1ccc(-n2[nH]c(C)c(NN=C3C=CC=C(c4cccc(C(=O)O)c4)C3=O)c2=O)cc1C` [Eltrombopag] registered a cell viability of 81.7.

Compound `O=C(O)CCc1nc(-c2ccccc2)c(-c2ccccc2)o1` [Oxaprozin] came in with a cell viability of 75.8.

In the case of `CCOC(=O)n1ccn(C)c1=S` [Carbimazole], the cell viability was determined as 72.4.

Consider `COC(=O)c1ccc2c(c1)NC(=O)C2=C(Nc1ccc(N(C)C(=O)CN2CCN(C)CC2)cc1)c1ccccc1` [Nintedanib (BIBF 1120)], for which the cell viability came out at 64.8.

Take `Cc1c(NC(=O)c2cccnc2)c(=O)n(-c2ccccc2)n1C` [Nifenazone]: the cell viability worked out at 94.6.

With `CCCCN1CCCCC1C(=O)Nc1c(C)cccc1C.Cl` (stereo not given) [Bupivacaine HCl], the cell viability was determined as 117.

Turning to `COS(=O)(=O)[O-].C[N+]1(C)CCC(=C(c2ccccc2)c2ccccc2)CC1` [Diphemanil Methylsulfate], the cell viability came to 85.1.

In turn, `Cc1cc(C=CC#N)cc(C)c1Nc1ccnc(Nc2ccc(C#N)cc2)n1` [Rilpivirine] gave a cell viability of 92.2.

On to `Cn1c(=O)c2c(ncn2CC2OCCO2)n(C)c1=O` [Doxofylline], for which the cell viability came to 75.1.

For the compound `Nc1ccc(S(N)(=O)=O)cc1` [Sulfanilamide], the cell viability was 112.

In turn, `CO[C@H]1/C=C/O[C@@]2(C)Oc3c(C)c(O)c4c(O)c(c5c(nc6cc(C)ccn65)c4c3C2=O)NC(=O)/C(C)=C\C=C\[C@H](C)[C@H](O)[C@@H](C)[C@H](O)[C@@H](C)[C@H](OC(C)=O)[C@@H]1C` [Rifaximin (Xifaxan)] returned a cell viability of 84.5.

For `NS(=O)(=O)c1cc2c(cc1Cl)NC(C(Cl)Cl)NS2(=O)=O` (stereo not given) [Trichlormethiazide], the cell viability stood at 113.

`O=C(Oc1ccccc1C(=O)O)c1ccccc1O` [Sasapyrine] yielded a cell viability of 90.
